Measured values reported in article PMC8249616, “Structural basis of the activation of c-MET receptor” (Nature Communications, 2021).

B1: HGF E159R (ligand)
chain: not shown
notes: signal peptide in the construct; full-length human HGF with a point mutation in the K1 domain; source: HEK293F, secreted, purified
B2: HGF W321R/E361R/Y376A (ligand)
chain: not shown
notes: signal peptide in the construct; full-length human HGF with a triple mutation in the K3 domain; also called HGF W321R/E361R/Y376A triple mutant; source: HEK293F, secreted, purified
B3: HGF R242E/K244E/R249E (ligand)
chain: not shown
notes: signal peptide in the construct; full-length human HGF with a triple mutation in the K2 domain; also called HGF R242E/K244E/R249E triple mutant; source: HEK293F, secreted, purified

Target: T1, c-MET927-TSI3-His (c-MET 1-927 with Tsi3 and His6 tags kept) (human, UniProt P08581 25-927)
T1 construct: signal peptide in the construct; Bait of the pull-down, held on TSE resin by its Tsi3 tag; also called TSI tagged c-MET927; source: HEK293F infected with baculovirus (pEZT-BM), secreted, purified; not shown: Tsi3, C-terminal, kept; His6, C-terminal, kept
T1 sequence (P08581 25-927): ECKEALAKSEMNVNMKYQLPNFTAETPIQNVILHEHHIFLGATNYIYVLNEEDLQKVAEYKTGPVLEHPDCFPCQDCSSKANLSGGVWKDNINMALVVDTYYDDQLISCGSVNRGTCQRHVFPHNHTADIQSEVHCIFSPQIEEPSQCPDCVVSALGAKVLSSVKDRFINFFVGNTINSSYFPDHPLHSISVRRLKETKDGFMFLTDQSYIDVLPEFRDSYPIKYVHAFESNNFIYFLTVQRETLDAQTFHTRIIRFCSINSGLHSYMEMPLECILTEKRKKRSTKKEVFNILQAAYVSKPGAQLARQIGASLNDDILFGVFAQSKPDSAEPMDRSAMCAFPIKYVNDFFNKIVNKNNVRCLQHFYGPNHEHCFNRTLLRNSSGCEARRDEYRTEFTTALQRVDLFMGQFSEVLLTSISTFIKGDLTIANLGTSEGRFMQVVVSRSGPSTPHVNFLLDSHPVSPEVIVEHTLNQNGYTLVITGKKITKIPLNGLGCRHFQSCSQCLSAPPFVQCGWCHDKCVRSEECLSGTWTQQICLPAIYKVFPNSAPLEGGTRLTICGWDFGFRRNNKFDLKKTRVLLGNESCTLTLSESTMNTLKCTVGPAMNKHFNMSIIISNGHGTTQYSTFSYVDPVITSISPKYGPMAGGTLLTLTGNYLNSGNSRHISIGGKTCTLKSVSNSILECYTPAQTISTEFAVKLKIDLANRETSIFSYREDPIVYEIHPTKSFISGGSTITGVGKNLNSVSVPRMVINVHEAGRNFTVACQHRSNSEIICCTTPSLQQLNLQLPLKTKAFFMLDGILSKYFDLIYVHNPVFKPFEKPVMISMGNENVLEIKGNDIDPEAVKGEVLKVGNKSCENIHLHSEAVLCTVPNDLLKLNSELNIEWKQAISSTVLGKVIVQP
Test: pull-down; 5 ug c-MET927-TSI3-His immobilised on TSE resin as bait; 5 ug HGF wild type or mutant as prey in 50 ul PBS with 10 uM Tinzaparin and 2 mM CaCl2, 1 h at 4 degrees; SDS-PAGE, band intensity by ImageJ
Settings: both partners purified

| Binder | binding result |
| --- | --- |
| B1 | binds |
| B2 | binds |
| B3 | binds |
